The values that follow come from PubChem BioAssay AID488969 (Vanderbilt High Throughput Screening Facility, 2010).

The structures appear in SMILES notation. In all, about 110,000 compounds were measured (“z-score”: median about -0.1, highest 2% from about 2 on). The list shows a part of the results. Calls of active or inactive are those of the source.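 Rule for the calls: active = z-score in the third read window above 3 or below -3; inactive = the rest.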

This assay addresses Metabotropic glutamate receptor 8 (Rattus norvegicus) (UniProt P70579). Kind of assay: rat mGluR8 modulators via GIRK flux, primary screen, cell-based, thallium flux, HTS (AID 488969). To be noted: HEK293 rat mGluR8, GIRK (G protein-gated inwardly rectifying potassium channel) thallium flux, FluoZin2; at 10 µM; stronger effect = higher value; submaximal glutamate (EC20) added with thallium.
Chain of UniProt P70579 (P70579 whole entry, looked up): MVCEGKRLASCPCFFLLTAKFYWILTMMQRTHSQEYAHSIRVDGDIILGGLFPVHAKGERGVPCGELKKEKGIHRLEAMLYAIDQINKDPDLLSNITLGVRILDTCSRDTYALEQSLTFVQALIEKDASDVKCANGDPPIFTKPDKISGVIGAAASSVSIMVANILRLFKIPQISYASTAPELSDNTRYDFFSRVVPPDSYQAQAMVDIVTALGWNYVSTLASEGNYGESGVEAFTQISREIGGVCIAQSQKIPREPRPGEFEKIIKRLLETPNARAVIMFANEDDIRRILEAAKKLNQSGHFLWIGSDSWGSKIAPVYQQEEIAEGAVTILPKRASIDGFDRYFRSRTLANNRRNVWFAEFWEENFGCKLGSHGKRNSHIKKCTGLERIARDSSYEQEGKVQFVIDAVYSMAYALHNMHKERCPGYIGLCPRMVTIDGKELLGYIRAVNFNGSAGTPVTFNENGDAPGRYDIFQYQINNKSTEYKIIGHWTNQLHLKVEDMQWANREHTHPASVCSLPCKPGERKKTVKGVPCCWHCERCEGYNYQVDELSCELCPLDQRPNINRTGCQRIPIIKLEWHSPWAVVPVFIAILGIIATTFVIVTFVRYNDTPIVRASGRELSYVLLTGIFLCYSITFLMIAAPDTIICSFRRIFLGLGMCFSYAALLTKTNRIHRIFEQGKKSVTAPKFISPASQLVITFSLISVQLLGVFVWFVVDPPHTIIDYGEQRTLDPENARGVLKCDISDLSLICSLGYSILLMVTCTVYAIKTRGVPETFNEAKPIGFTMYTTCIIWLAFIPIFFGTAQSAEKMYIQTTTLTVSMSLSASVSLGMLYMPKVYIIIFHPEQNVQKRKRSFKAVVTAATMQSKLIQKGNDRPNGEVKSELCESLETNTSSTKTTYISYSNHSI
As for `COc1ccc(CCn2c3c(c(=O)[nH]c2=O)C(NC(=O)c2cccs2)(C(F)(F)F)C(=O)N3)cc1OC` (stereo not given), the z-score is 0.073.
Take `Cc1ccc2c(CN3CCN(Cc4ccc5c(c4)OCO5)CC3)cc(=O)oc2c1C`: the z-score came out at 1.26.
With `CCOc1cccc(C(=O)N(Cc2ccco2)C2CCS(=O)(=O)C2)c1` (stereo not given), the z-score is -0.365.
Then `O=C(CSCCNS(=O)(=O)c1ccccc1)Nc1ccccc1`, with -1.18.
Then `NC(=O)CSc1nc2ccccc2c(=O)n1Cc1ccco1`, with -0.321; and `CCC(C)N(C(=O)C(F)(F)F)C(C(=O)NC1CCCCC1)c1ccncc1` (stereo not given), with 0.117.
The value for `CCOC(=O)Cn1nnnc1CN(Cc1cccs1)Cc1cc2cc(C)ccc2[nH]c1=O` was -0.54; that for `COC(=O)c1cc(OC)c(OC)cc1NC(=O)CN1CCCCC1` was -0.403.
With `Cn1c(SCC#N)nnc1-c1ccc2c(c1)OCO2`, the z-score is -0.182.
In turn, `Cc1cnc(C(=O)Nc2nccs2)cn1` yielded a z-score of 0.00782.
The value for `O=C(COC(=O)CCSc1ccccc1Cl)Nc1ccc(F)cc1F` was -0.501.
The value for `Cc1cccc(C(=O)Nc2ccc(C)c(OC(=O)c3cccc(C)c3)c2)c1` was -0.0742; that for `Cc1cccc(C(=O)c2cnc3ccccc3c2-c2ccccc2)c1` was -0.418; that for `CCOc1ccccc1N1CN(CC)CNC1=S` was -0.107.
Then `CCOC(=O)N1CCC(Nc2c(NCCCN(C)Cc3ccccc3)c(=O)c2=O)CC1`, with -0.407; and `COc1cc(C2C(C#N)=C(C)NC3=C2C(=O)c2ccccc23)cc(OC)c1OC` (stereo not given), with -0.926; and `COc1ccccc1C(=O)N1CCCC(c2nc(-c3cc(OC)c(OC)c(OC)c3)no2)C1` (stereo not given), with 1.06.
In turn, `Cc1nc([N+](=O)[O-])c(Sc2nc3ccc([N+](=O)[O-])cc3[nH]2)n1Cc1ccccc1` gave a z-score of -0.115.
Regarding `COc1ccc(Cl)cc1N(CC(=O)Nc1cccc(SC)c1)S(C)(=O)=O`, the z-score is -0.191.
For `Cc1ccc(N2C(=O)CC(NCc3ccc4c(c3)OCO4)C2=O)cc1Cl` (stereo not given), the z-score amounted to 0.555.
Consider `Cc1ccnc(NC(=O)c2ccccc2[N+](=O)[O-])c1`, for which the z-score worked out at 0.116.
Then `CC(C)(CC(=O)O)Cc1nc(-c2ccc(Cl)cc2)no1`, with -0.109; and `CCC(C)Sc1nc2c(cnn2-c2ccc(C)cc2)c(=O)[nH]1` (stereo not given), with -0.177.
The molecule `COCCn1c(=NC(=O)CSC(C)=O)sc2cc(F)ccc21` showed a z-score of 0.157.
`COc1ccc(N(C)S(=O)(=O)c2cccc(C(=O)Nc3ccc(OC)nc3)c2)cc1` displayed a z-score of 0.177.
Then `CCCN(CC1CC1)S(=O)(=O)c1ccc(-n2cnnn2)c(OC)c1`, with 0.0226; and `COc1ccc(NS(=O)(=O)c2c(C)[nH]c(=O)[nH]c2=O)c(OC)c1`, with -0.223; and `COc1ccc(Br)cc1C(=O)Nc1cccc(-c2nnc(-c3ccco3)o2)c1`, with -1.55.
Then `O=C(NCc1ccccc1Cl)c1ccccc1Oc1ccccc1`, with -0.412; and `Cc1oc2cc(O)ccc2c(=O)c1Oc1ccc2ccccc2c1`, with -0.419; and `O=c1c2c(n3cnnc3n1-c1ccccc1)-c1ccccc1CC21CCCC1`, with -0.283.
The molecule `Cc1scc(-c2n[nH]c(=S)n2C(C)c2ccccc2)c1C` (stereo not given) gave a z-score of -1.43.
Turning to `O=C(O)C1C2C=CC(C2)C1C(=O)NCCc1ccncc1` (stereo not given), the z-score was 0.718.
For the molecule `Cn1nnnc1SCC(=O)Nc1nc(-c2ccccc2)c(-c2ccccc2)o1`, the z-score is -0.0372.
The value for `Cc1ccc2c(c1)N(CCC(=O)NCC1COc3ccccc3O1)C(=O)CO2` (stereo not given) was 0.681; that for `COCCN(C(=S)Nc1ccccc1C)C(C)c1cccs1` (stereo not given) was -0.521.
Consider `O=C(c1ccccc1NS(=O)(=O)c1cccc(C(F)(F)F)c1)N1CCc2ccccc21`, for which the z-score worked out at 0.396.
Regarding `O=C(Nc1nnc(-c2ccccn2)o1)c1cccc(Br)c1`, the z-score is 0.334.
As to `O=C(COc1ccc(Cl)cc1)N(Cc1ccccc1)c1ccccn1`, the z-score came out at 0.67.
In turn, `Cn1nnnc1SCc1ccc(C(=O)Nc2ccccc2F)cc1` had a z-score of -0.223.
Then `COc1ccc(/C=C2\SC(N3CCc4ccccc4C3)=NC2=O)cc1OC`, with -0.444.
The value for `COc1cccc(C(=O)Nc2nc(-c3ccccc3)c(-c3ccccc3)o2)c1` was active: 7.83.
The molecule `CC1(C)CC(=O)c2cc(C(=O)Nn3cnnc3)c(=O)n(-c3ccccc3)c2C1` gave a z-score of 0.645.
`COc1ccc(C2N(c3cccc(Cl)c3)C(=O)C3CCCN32)cc1` (stereo not given) displayed a z-score of -0.123.
The value for `COc1cc(NC(=O)Cn2nc(Cc3cccnc3)c3ccccc3c2=O)cc(OC)c1OC` was -0.0982; that for `COCCNC(=O)c1ccc(N2CCC3(CC2)OCCO3)c([N+](=O)[O-])c1` was -0.355.
In the case of `c1ccc2c(c1)CCCn1nnnc1-2`, the z-score came to 0.404.
`CCOC(=O)C1=C(N)OC2=C(C(=O)CC(C)(C)C2)C1c1cccnc1` (stereo not given) showed a z-score of -0.0823.
Then `O=C(CSc1nnc(-c2ccccc2NC(=O)c2ccccc2)o1)OC1CCCCC1`, with -0.228; and `O=c1c2oc3ccccc3c2ncn1Cc1ccccc1F`, with -0.88; and `CC(=O)Nc1ccc(S(=O)(=O)N2CCC(c3nc4ccccc4[nH]3)CC2)cc1`, with 0.0879.
Then `COc1ccc(OCC(=O)N/N=C(\C)c2ccc(-n3ccnc3)cc2)cc1`, with -0.334.
In the case of `CC(=O)Nc1nc2n(n1)C(c1ccc(Cl)cc1)C=C(C)N2` (stereo not given), the z-score was -0.129.
Turning to `CCN(/C=N/c1sc2c(c1C#N)CCCCC2)CC`, the z-score was -0.292.
In turn, `O=C(OCc1nc2ccc(Cl)cc2n1CCO)c1ccc(O)cc1` gave a z-score of -0.133.
The value for `COc1ccc(CNC(=O)C2COc3ccccc3O2)c(OC)c1` (stereo not given) was 0.821.
Then `CC(=O)Nc1c(Cl)n(C(C)=O)c2ccccc12`, with -0.309.
The value for `CCSc1nnc(NC(=O)Cc2ccc(OC)c(OC)c2)s1` was 0.396; that for `Cc1ccc(SCCC(=O)Nc2cccc(N(C)S(C)(=O)=O)c2)cc1` was 0.206; that for `COc1ccc(-n2c(Cc3cccn3C)nnc2SCC(=O)Nc2cccc(C)c2C)cc1` was -0.553.
Take `Cc1cccc(CN2CCN(c3ccccn3)CC2)c1`: the z-score was -0.478.
The value for `COc1cc(NC(=O)Cn2nc(C(F)(F)F)c3c2CCCC3)cc(OC)c1OC` was -0.327; that for `CC12CN3CC(C)(CN(C1)C3c1ccc(Cl)cc1Cl)C2O` (stereo not given) was -0.0223.
Then `CC(=O)c1c(C)[nH]c(C(=O)CSc2ncnc3sc(-c4ccccc4)cc23)c1C`, with active: 5.38; and `O=C(Cc1cccs1)NCc1ccc(F)cc1`, with 0.123; and `O=C(O)C=C1CCN(c2ncc(C(F)(F)F)cc2Cl)CC1`, with -0.0252.
For `O=C(CN1C(=O)NC2(CCCCCC2)C1=O)N1CCC(Cc2ccccc2)CC1`, the z-score was -0.214.
`COCCCNC(=O)C1CC(=O)OC1c1ccc(OC)c(OC)c1` (stereo not given) registered a z-score of 0.0285.
Then `Cc1cccc(N2CCN(C(=O)CCNC(=O)Cn3ccc4ccccc4c3=O)CC2)c1C`, with -0.914; and `O=C(c1sc2cc([N+](=O)[O-])ccc2c1Cl)N1CCCCC1`, with -0.324.
